Test results: publication PMC4336329 (PLoS ONE, 2015)
Hit rate of the full screen: of about 310,000 compounds, about 2,200 (0.71%) showed an effect of 50% or more. The effect is printed as a negative number. Some of the results follow.

molecular target: human ether-à-go-go-related gene (hERG) potassium channel (human, UniProt Q12809); assay: primary screen, population patch clamp on CHO cells stably expressing hERG
Sequence (Q12809 whole entry, looked up): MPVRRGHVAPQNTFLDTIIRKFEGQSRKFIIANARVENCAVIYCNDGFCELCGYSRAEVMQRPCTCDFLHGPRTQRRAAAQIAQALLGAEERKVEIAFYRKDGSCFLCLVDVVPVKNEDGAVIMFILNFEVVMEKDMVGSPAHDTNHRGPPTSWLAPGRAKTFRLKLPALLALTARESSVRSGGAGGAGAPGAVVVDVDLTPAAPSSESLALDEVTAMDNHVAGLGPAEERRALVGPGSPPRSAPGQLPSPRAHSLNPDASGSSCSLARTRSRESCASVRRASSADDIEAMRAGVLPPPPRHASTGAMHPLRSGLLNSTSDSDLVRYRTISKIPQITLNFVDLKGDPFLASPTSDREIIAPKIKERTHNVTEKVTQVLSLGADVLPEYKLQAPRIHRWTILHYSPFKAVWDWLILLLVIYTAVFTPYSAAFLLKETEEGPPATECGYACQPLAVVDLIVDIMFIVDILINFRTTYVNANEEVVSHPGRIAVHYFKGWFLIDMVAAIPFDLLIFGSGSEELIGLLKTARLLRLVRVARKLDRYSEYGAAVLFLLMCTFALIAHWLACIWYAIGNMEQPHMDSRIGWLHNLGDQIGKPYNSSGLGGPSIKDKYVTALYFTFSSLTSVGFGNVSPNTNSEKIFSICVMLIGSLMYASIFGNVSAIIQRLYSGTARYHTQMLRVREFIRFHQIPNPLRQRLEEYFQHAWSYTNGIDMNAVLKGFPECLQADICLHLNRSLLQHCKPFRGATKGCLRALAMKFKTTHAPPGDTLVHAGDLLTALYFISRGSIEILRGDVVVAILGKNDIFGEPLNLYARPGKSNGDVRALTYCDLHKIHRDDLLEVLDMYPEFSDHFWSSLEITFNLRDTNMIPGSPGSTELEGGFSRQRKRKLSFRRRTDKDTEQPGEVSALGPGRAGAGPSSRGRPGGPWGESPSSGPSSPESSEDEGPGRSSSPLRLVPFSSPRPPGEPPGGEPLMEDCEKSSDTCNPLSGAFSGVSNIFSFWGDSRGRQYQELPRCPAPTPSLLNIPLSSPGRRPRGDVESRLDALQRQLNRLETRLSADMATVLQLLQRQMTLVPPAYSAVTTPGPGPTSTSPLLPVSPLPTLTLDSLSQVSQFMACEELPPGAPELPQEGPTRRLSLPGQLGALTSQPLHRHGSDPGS

SMILES	hERG current change (%, negative = inhibition) at 1uM
O=C(NC(Cc1ccc(O)cc1)C(=O)O)/C(=C/c1ccccc1)NC(=O)c1ccccc1 (stereo not shown)	11.4%
CC1(C)N=C(N)NC(Nc2cccc(Br)c2)=N1	7.11%
CC(=O)NC(=O)COC(=O)/C=C/c1c(C)nn(Cc2c(Cl)cccc2Cl)c1Cl	-1.17%
O=C(O)c1ccc(Cl)c(S(=O)(=O)NC(Cc2ccccc2)C(=O)O)c1 (stereo not shown)	13.3%
COc1ccc(C(=O)OCC(=O)Nc2c(C)cccc2C)cc1	15.3%
COc1ccc2nc(NC(=O)CSc3nc(C)cc(C)n3)sc2c1	-4.47%
O=C(COC(=O)c1n[nH]c2ccccc12)c1cccc(Br)c1	13.3%
O=C(C1CC1)N1N=C(c2ccc(F)cc2)CC1(O)C(F)(F)F (stereo not shown)	12.8%
COc1ccc(OCC(=O)OCC(=O)NC2CCCCC2C)cc1 (stereo not shown)	9.61%
COc1ccc(C(=O)O)cc1S(=O)(=O)NCCCN1CCCC1=O	17.2%
Cc1ccc(C(=O)NNC(=S)NC(=O)c2ccco2)cc1	12.9%
CC(Oc1ccc(-c2nccc(-c3ccccn3)n2)cc1)C(=O)NN (stereo not shown)	6.48%
O=C(Nc1ncc2c(n1)CC(c1ccco1)CC2=O)c1ccco1 (stereo not shown)	5.09%
Cc1ccc(S(=O)(=O)NCCCCCC(=O)Nc2nccs2)cc1	1.11%
Cc1cc(C(F)(F)F)nn1C(=O)c1cccnc1Cl	2.82%
C/C=C/c1ccc(OCC(=O)OCC)c(OC)c1	5.3%
NC(=O)CSCc1ccc(Br)cc1	12.6%
COCCNc1cc(N)c([N+](=O)[O-])cc1[N+](=O)[O-]	-4.4%
CN(C1CC(C)(C)NC(C)(C)C1)S(=O)(=O)CC12CCC(CC1=O)C2(C)C.Cl (stereo not shown)	6.67%
CC1CC(C)CN(Cc2nc(N)nc(Nc3ccccc3)n2)C1 (stereo not shown)	-52.3%

SMILES	hERG current change (%, negative = inhibition) at 1uM
Cc1cc2cc(CN(Cc3ccc4c(c3)OCO4)C(=O)c3ccco3)c(=O)[nH]c2cc1C	11.2%
Cc1cc2c(cc1S(=O)(=O)N1CCc3ccccc31)NC(=O)CO2	7.65%
CCCCCC1CC(COc2ccccc2)OC1=O (stereo not shown)	-3.31%
COc1ccc(CCNC(=O)CCN2C(=O)c3ccccc3C2=O)cc1OC	11.8%
O=C(CN1CCCC1)Nc1ccc(NC(=O)Nc2ccccc2)cc1	9.97%
COc1ccc(CCN2C(=O)NC(NC(C)=O)(C(F)(F)F)C2=O)cc1OC (stereo not shown)	7.21%
O=[N+]([O-])c1ccc(NCCN2CCOCC2)c([N+](=O)[O-])c1	-8.22%
CCOC(=O)/C(C#N)=C/C1=C(N2CCOCC2)CC(C)(C)OC1	4.43%
Cc1ccc(C(=O)NCCc2c[nH]c3ccccc23)c(C)c1	5.16%
CC1=C(C(=O)OCC2CCCO2)C(c2ccccc2)NC(=O)N1 (stereo not shown)	12.8%
CC(C)c1ccc(/C=N/NC(=O)c2nnn(-c3nonc3N)c2CN2CCOCC2)cc1	2.51%
COc1ccccc1C(=O)Nc1ccc2c(c1)nc(CCNC(=O)c1ccco1)n2C	8.84%
COc1cccc(OC)c1C(=O)Oc1ccc2c(c1)O/C(=C\c1ccncc1)C2=O	18.3%
Cc1cccc(C)c1NC(=S)Nc1ccc(F)cc1	7.6%
Cc1cc(/C=C(\C#N)C(=O)O)c(C)n1C1CC1	-1.4%
Fc1cccc(F)c1CSc1nc2ccccc2[nH]1	0.26%
CC1CCCN(C(=O)C2CCN(S(=O)(=O)c3ccc4c(c3)CC(C)N4C(=O)C3CC3)CC2)C1 (stereo not shown)	10.8%
COCCNC(=O)C(=O)NNC(=O)COc1ccc(OC)cc1	8.3%
CCCC(=O)N1CCN(c2ccc(NC(=O)c3ccccc3)cc2)CC1	10%
Cc1cccc(-n2c(Cc3cc(=O)[nH]c(=O)[nH]3)nnc2SCC(=O)NCC2CCCO2)c1 (stereo not shown)	13.7%

SMILES	hERG current change (%, negative = inhibition) at 1uM
O=S(=O)(c1ccc(Oc2ccc(Cl)cc2)c(S(=O)(=O)N2CCCCC2)c1)N1CCCCC1	-4.29%
CCOC(=O)c1c(NC(=O)C2CCCN(S(=O)(=O)c3ccc(C)cc3)C2)sc2c1CCCC2 (stereo not shown)	14.5%
CC1(c2nnc(-c3cccc(Cl)c3)o2)CC(c2ccc(F)cc2)=NO1 (stereo not shown)	17.6%
COc1ccc(-c2c(C#N)c(N)nc3c2CCC3)cc1	8.34%
Cc1ccc(/C=N/NC(=O)c2cc(C3CC3)nc3ccccc23)o1	8.32%
COc1ccccc1OCC(=O)NNC(=O)c1c(-c2ccccc2Cl)noc1C	10.4%
CN(CC(=O)Nc1c(F)cccc1F)Cc1cccs1	18.5%
CC(C)(C)C(=O)CCN1C(=O)C2(OCCO2)c2ccccc21	5.53%
CC(Sc1nnc(-c2cccnc2)o1)C(=O)NC1CCCC1 (stereo not shown)	-1.31%
COc1ccc(/C=C/C(=O)c2cc(F)ccc2OC(=O)c2ccccc2C)cc1OC	3%
COc1ccc(-c2ccnc3ncnn23)cc1	-4.44%
COc1cccc(CN(CC(=O)NCC2CCCO2)C(=O)CCC(=O)Nc2cc(C)on2)c1 (stereo not shown)	7.83%
COc1ccc(-c2nnc(SCC(=O)N3CCCCC3)o2)cc1	3.01%
CCOC(=O)Cn1c(=O)oc2cc(S(=O)(=O)N3CCCC(C)C3)ccc21 (stereo not shown)	18.2%
COCc1nnc(NS(=O)(=O)c2ccccc2)s1	8.1%
CC(C)CCN(Cc1ccco1)S(=O)(=O)c1csc(C(N)=O)c1	-2.33%
C=CCNC(=O)CCNS(=O)(=O)c1ccc(Br)cc1	10.3%
Cc1cc2oc(C(=O)Nc3ccc(S(=O)(=O)Nc4onc(C)c4C)cc3)cc(=O)c2cc1Cl	1.59%
